# In the supplement of paper PMC8728848:
# The other results are listed elsewhere or left out.
# B1: CC1G-11630 (Coprinopsis cinerea), A8P462 (protein)
# chain: MTTEAKIKLKAVVYWELVFDYDNSSNTGEITQSYTVKISQTSTRSTFASEVSTTTIDTLTKNNQEVDVGASYGAISANVSASWEHSEEVNNMLEKTTQTSTEDTYTVETEETRSYTIGPGGMLSLFQKHFSGPGMHVAFDVFTTDLELAKERTEIDIDVDVEAIRFVREIRVVYTDIMSEAPGDHVREINGKNPDINYGFNGKFVWLVPEQTRKTAQALTNVEFVSQAESDDRYWDLAAGAGGSNRYLIPVYDTNNKDKIYELALWRSDSYITHDKVKAAGWSGTTGDINSGRGGTYLNLVWKTRHAY
# Columns and labels:
# Assay in all cases: glycan array binding signal (z-score within array); higher = stronger binding
# Details in all cases: glycan notation: IUPAC condensed, linker removed
# [1] = target: GlcNAc(a1-6)Gal(b1-4)GlcNAc
# Procedure, shortened: (§1)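 Glycan array binding is given as a within-array Z-score, which can be read as non-binding when negative. The arrays, 3228 of them, came from the Consortium for Functional Glycomics database and were retained only where the protein sequence was available. Z-scores were averaged across arrays of the same protein sequence at different concentrations or buffers and across linkers.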
# [2] = target: GlcNAc(b1-2)Gal(b1-3)GalNAc
# Procedure, shortened: as §1
# [3] = target: GlcNAc(b1-2)Man(a1-3)[GlcNAc(b1-2)Man(a1-6)]Man(b1-4)GlcNAc(b1-4)GlcNAc
# Procedure, shortened: as §1
# [4] = target: GlcNAc(b1-2)Man(a1-3)[GlcNAc(b1-2)Man(a1-6)]Man(b1-4)GlcNAc(b1-4)[Fuc(a1-6)]GlcNAc
# Procedure, shortened: as §1
# [5] = target: GlcNAc(b1-2)Man(a1-3)[GlcNAc(b1-4)][GlcNAc(b1-2)Man(a1-6)]Man(b1-4)GlcNAc(b1-4)GlcNAc
# Procedure, shortened: as §1
# [6] = target: GlcNAc(b1-2)Man(a1-3)[GlcNAc(b1-4)][GlcNAc(b1-2)Man(a1-6)]Man(b1-4)GlcNAc(b1-4)[Fuc(a1-6)]GlcNAc
# Procedure, shortened: as §1
# [7] = target: GlcNAc(b1-2)[GlcNAc(b1-4)]Man(a1-3)[GlcNAc(b1-2)Man(a1-6)]Man(b1-4)GlcNAc(b1-4)GlcNAc
# Procedure, shortened: as §1
# [8] = target: GlcNAc(b1-2)[GlcNAc(b1-4)]Man(a1-3)[GlcNAc(b1-4)][GlcNAc(b1-2)Man(a1-6)]Man(b1-4)GlcNAc(b1-4)GlcNAc
# Procedure, shortened: as §1
# [9] = target: GlcNAc(b1-2)[GlcNAc(b1-4)]Man(a1-3)[GlcNAc(b1-4)][GlcNAc(b1-2)[GlcNAc(b1-6)]Man(a1-6)]Man(b1-4)GlcNAc(b1-4)GlcNAc
# Procedure, shortened: as §1
# [10] = target: GlcNAc(b1-2)[GlcNAc(b1-4)]Man(a1-3)[GlcNAc(b1-4)][GlcNAc(b1-2)[GlcNAc(b1-6)]Man(a1-6)]Man(b1-4)GlcNAc(b1-4)[Fuc(a1-6)]GlcNAc
# Procedure, shortened: as §1
# [11] = target: GlcNAc(b1-2)[GlcNAc(b1-6)]Man(a1-6)[GlcNAc(b1-2)Man(a1-3)]Man(b1-4)GlcNAc(b1-4)GlcNAc
# Procedure, shortened: as §1
# [12] = target: GlcNAc(b1-2)[GlcNAc(b1-6)]Man(a1-6)[GlcNAc(b1-2)Man(a1-3)]Man(b1-4)GlcNAc(b1-4)[Fuc(a1-6)]GlcNAc
# Procedure, shortened: as §1
# [13] = target: GlcNAc(b1-2)[GlcNAc(b1-6)]Man(a1-6)[GlcNAc(b1-4)][GlcNAc(b1-2)Man(a1-3)]Man(b1-4)GlcNAc(b1-4)GlcNAc
# Procedure, shortened: as §1
# GlcNAc(b1-3)Fuc = target: GlcNAc(b1-3)Fuc
# Procedure, shortened: as §1
# GlcNAc(b1-3)Gal = target: GlcNAc(b1-3)Gal
# Procedure, shortened: as §1
# [14] = target: GlcNAc(b1-3)Gal(b1-3)GalNAc
# Procedure, shortened: as §1
# GlcNAc(b1-3)Gal(b1-4)Glc = target: GlcNAc(b1-3)Gal(b1-4)Glc
# Procedure, shortened: as §1
# [15] = target: GlcNAc(b1-3)Gal(b1-4)GlcNAc
# Procedure, shortened: as §1
# [16] = target: GlcNAc(b1-3)Gal(b1-4)GlcNAc(b1-2)Man(a1-3)[GlcNAc(b1-3)Gal(b1-4)GlcNAc(b1-2)Man(a1-6)]Man(b1-4)GlcNAc(b1-4)GlcNAc
# Procedure, shortened: as §1
# [17] = target: GlcNAc(b1-3)Gal(b1-4)GlcNAc(b1-2)Man(a1-3)[GlcNAc(b1-3)Gal(b1-4)GlcNAc(b1-2)Man(a1-6)]Man(b1-4)GlcNAc(b1-4)[Fuc(a1-6)]GlcNAc
# Procedure, shortened: as §1
# [18] = target: GlcNAc(b1-3)Gal(b1-4)GlcNAc(b1-2)[GlcNAc(b1-3)Gal(b1-4)GlcNAc(b1-6)]Man(a1-6)[GlcNAc(b1-3)Gal(b1-4)GlcNAc(b1-2)Man(a1-3)]Man(b1-4)GlcNAc(b1-4)GlcNAc
# Procedure, shortened: as §1
# [19] = target: GlcNAc(b1-3)Gal(b1-4)GlcNAc(b1-3)Gal(b1-4)GlcNAc
# Procedure, shortened: as §1
# [20] = target: GlcNAc(b1-3)Gal(b1-4)GlcNAc(b1-3)Gal(b1-4)GlcNAc(b1-2)Man(a1-3)[GlcNAc(b1-3)Gal(b1-4)GlcNAc(b1-3)Gal(b1-4)GlcNAc(b1-2)Man(a1-6)]Man(b1-4)GlcNAc(b1-4)GlcNAc
# Procedure, shortened: as §1
# [21] = target: GlcNAc(b1-3)Gal(b1-4)GlcNAc(b1-3)Gal(b1-4)GlcNAc(b1-2)Man(a1-3)[GlcNAc(b1-3)Gal(b1-4)GlcNAc(b1-3)Gal(b1-4)GlcNAc(b1-2)Man(a1-6)]Man(b1-4)GlcNAc(b1-4)[Fuc(a1-6)]GlcNAc
# Procedure, shortened: as §1
# [22] = target: GlcNAc(b1-3)Gal(b1-4)GlcNAc(b1-3)Gal(b1-4)GlcNAc(b1-2)[GlcNAc(b1-3)Gal(b1-4)GlcNAc(b1-3)Gal(b1-4)GlcNAc(b1-6)]Man(a1-6)[GlcNAc(b1-3)Gal(b1-4)GlcNAc(b1-3)Gal(b1-4)GlcNAc(b1-2)Man(a1-3)]Man(b1-4)GlcNAc(b1-4)[Fuc(a1-6)]GlcNAc
# Procedure, shortened: as §1
# [23] = target: GlcNAc(b1-3)Gal(b1-4)GlcNAc(b1-3)Gal(b1-4)GlcNAc(b1-3)Gal(b1-4)GlcNAc(b1-2)Man(a1-3)[GlcNAc(b1-3)Gal(b1-4)GlcNAc(b1-3)Gal(b1-4)GlcNAc(b1-3)Gal(b1-4)GlcNAc(b1-2)Man(a1-6)]Man(b1-4)GlcNAc(b1-4)GlcNAc
# Procedure, shortened: as §1
# [24] = target: GlcNAc(b1-3)Gal(b1-4)GlcNAc(b1-3)Gal(b1-4)GlcNAc(b1-3)Gal(b1-4)GlcNAc(b1-2)Man(a1-3)[GlcNAc(b1-3)Gal(b1-4)GlcNAc(b1-3)Gal(b1-4)GlcNAc(b1-3)Gal(b1-4)GlcNAc(b1-2)Man(a1-6)]Man(b1-4)GlcNAc(b1-4)[Fuc(a1-6)]GlcNAc
# Procedure, shortened: as §1
# [25] = target: GlcNAc(b1-3)Gal(b1-4)GlcNAc(b1-3)Gal(b1-4)GlcNAc(b1-3)Gal(b1-4)GlcNAc(b1-2)[GlcNAc(b1-3)Gal(b1-4)GlcNAc(b1-3)Gal(b1-4)GlcNAc(b1-3)Gal(b1-4)GlcNAc(b1-6)]Man(a1-6)[GlcNAc(b1-3)Gal(b1-4)GlcNAc(b1-3)Gal(b1-4)GlcNAc(b1-3)Gal(b1-4)GlcNAc(b1-2)Man(a1-3)]Man(b1-4)GlcNAc(b1-4)[Fuc(a1-6)]GlcNAc
# Procedure, shortened: as §1
# [26] = target: GlcNAc(b1-3)Gal(b1-4)GlcNAc(b1-3)Gal(b1-4)GlcNAc(b1-3)Gal(b1-4)GlcNAc(b1-3)Gal(b1-4)GlcNAc(b1-2)Man(a1-3)[GlcNAc(b1-3)Gal(b1-4)GlcNAc(b1-3)Gal(b1-4)GlcNAc(b1-3)Gal(b1-4)GlcNAc(b1-3)Gal(b1-4)GlcNAc(b1-2)Man(a1-6)]Man(b1-4)GlcNAc(b1-4)GlcNAc
# Procedure, shortened: as §1
# [27] = target: GlcNAc(b1-3)Gal(b1-4)GlcNAc(b1-3)Gal(b1-4)GlcNAc(b1-3)Gal(b1-4)GlcNAc(b1-3)Gal(b1-4)GlcNAc(b1-2)Man(a1-3)[GlcNAc(b1-3)Gal(b1-4)GlcNAc(b1-3)Gal(b1-4)GlcNAc(b1-3)Gal(b1-4)GlcNAc(b1-3)Gal(b1-4)GlcNAc(b1-2)Man(a1-6)]Man(b1-4)GlcNAc(b1-4)[Fuc(a1-6)]GlcNAc
# Procedure, shortened: as §1
# [28] = target: GlcNAc(b1-3)Gal(b1-4)GlcNAc(b1-3)Gal(b1-4)GlcNAc(b1-3)Gal(b1-4)GlcNAc(b1-3)Gal(b1-4)GlcNAc(b1-2)[GlcNAc(b1-3)Gal(b1-4)GlcNAc(b1-3)Gal(b1-4)GlcNAc(b1-3)Gal(b1-4)GlcNAc(b1-3)Gal(b1-4)GlcNAc(b1-6)]Man(a1-6)[GlcNAc(b1-3)Gal(b1-4)GlcNAc(b1-3)Gal(b1-4)GlcNAc(b1-3)Gal(b1-4)GlcNAc(b1-3)Gal(b1-4)GlcNAc(b1-2)Man(a1-3)]Man(b1-4)GlcNAc(b1-4)[Fuc(a1-6)]GlcNAc
# Procedure, shortened: as §1
# [29] = target: GlcNAc(b1-3)Gal(b1-4)GlcNAc(b1-3)Gal(b1-4)GlcNAc(b1-3)GalNAc
# Procedure, shortened: as §1
# [30] = target: GlcNAc(b1-3)Gal(b1-4)GlcNAc(b1-3)GalNAc
# Procedure, shortened: as §1
# [31] = target: GlcNAc(b1-3)Gal(b1-4)GlcNAc(b1-3)[GlcNAc(b1-3)Gal(b1-4)GlcNAc(b1-3)]GalNAc
# Procedure, shortened: as §1
# [32] = target: GlcNAc(b1-3)Gal(b1-4)GlcNAc(b1-6)[Gal(b1-3)]GalNAc
# Procedure, shortened: as §1
# [33] = target: GlcNAc(b1-3)Gal(b1-4)GlcNAc(b1-6)[GlcNAc(b1-3)Gal(b1-3)]GalNAc
# Procedure, shortened: as §1
# [34] = target: GlcNAc(b1-3)Gal(b1-4)GlcNAc(b1-6)[GlcNAc(b1-3)]Gal(b1-4)GlcNAc
# Procedure, shortened: as §1
binder,measurement,setting,value
B1,glycan array binding signal (z-score),[1],-0.919
same,glycan array binding signal (z-score),[2],-0.697
same,glycan array binding signal (z-score),[3],-0.24
same,glycan array binding signal (z-score),[4],-0.33
same,glycan array binding signal (z-score),[5],-0.294
same,glycan array binding signal (z-score),[6],-0.482
same,glycan array binding signal (z-score),[7],-0.331
same,glycan array binding signal (z-score),[8],-0.368
same,glycan array binding signal (z-score),[9],-0.201
same,glycan array binding signal (z-score),[10],-0.568
same,glycan array binding signal (z-score),[11],0.438
same,glycan array binding signal (z-score),[12],-0.255
same,glycan array binding signal (z-score),[13],-0.34
same,glycan array binding signal (z-score),GlcNAc(b1-3)Fuc,-0.237
same,glycan array binding signal (z-score),GlcNAc(b1-3)Gal,-0.55
same,glycan array binding signal (z-score),[14],-0.011
same,glycan array binding signal (z-score),GlcNAc(b1-3)Gal(b1-4)Glc,0.086
same,glycan array binding signal (z-score),[15],-0.538
same,glycan array binding signal (z-score),[16],-0.302
same,glycan array binding signal (z-score),[17],-0.213
same,glycan array binding signal (z-score),[18],0.403
same,glycan array binding signal (z-score),[19],-0.434
same,glycan array binding signal (z-score),[20],0.966
same,glycan array binding signal (z-score),[21],0.444
same,glycan array binding signal (z-score),[22],0.215
same,glycan array binding signal (z-score),[23],1.07
same,glycan array binding signal (z-score),[24],0.356
same,glycan array binding signal (z-score),[25],-0.15
same,glycan array binding signal (z-score),[26],0.121
same,glycan array binding signal (z-score),[27],-0.379
same,glycan array binding signal (z-score),[28],5.85
same,glycan array binding signal (z-score),[29],-0.179
same,glycan array binding signal (z-score),[30],-0.369
same,glycan array binding signal (z-score),[31],-0.549
same,glycan array binding signal (z-score),[32],-0.33
same,glycan array binding signal (z-score),[33],-0.296
same,glycan array binding signal (z-score),[34],-0.443
